Experimental data reported in PubChem BioAssay AID686971 (National Center for Advancing Translational Sciences (NCATS), 2013).
Hit rate of the full screen: of about 360,000 compounds, about 7,500 (2.1%) were called active. Inconclusive results, whose numbers are uncertain, are shown with a selection of clear calls. The call rests on the fitted dose curve; in most records, active means well fitted cell-killing curve with a large enough effect; inconclusive means small, poorly fitted or top-dose-only effect, or effect the other way, or another doubt; inactive means no such curve, though single readings can be large or run the other way. No potency is given beside an inconclusive call; the fits are too rough.

assay: qHTS for induction of synthetic lethality in tumor cells producing 2HG: qHTS for the HT-1080-IDH1KD cell line; conditions: HT-1080 IDH1 knockdown viability, ATP luminescence, 48 h; activity, negative = toxicity: at 46.1 µM (top of the series) unless noted;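 on activity, negative = toxicity: 0% = DMSO wells and -100% = cell-free medium wells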
Outline: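 Knockdown cells (IDH1KD HT-1080) received compounds 2 h after plating at 750 cells/well and were kept 48 h at 37 °C in 5% FBS RPMI. A CellTiter-Glo luminescence read gave % activity for curve fitting.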
Potency means the concentration at half of the fitted maximal effect; tags describe the fitted curve by direction and shape.

SMILES | Potency | activity, negative = toxicity
CC(C)C(N)c1csc(Nc2cc(Oc3ccccc3)ncn2)n1 (configuration not stated) | inconclusive [cytotoxic, single point] | 
NNC(=O)CN1C(c2ccc(Cl)cc2)=Nc2ccc(Br)cc2C1c1ccccc1 (configuration not stated) | inconclusive [cytotoxic, single point] | 
CCOC(=O)c1c(NC(=O)/C=C/C(=O)O)sc(C)c1-c1ccc(C(C)(C)C)cc1 | active: 5.8 µM | 
COc1ccccc1NC(=O)Nc1nc(CC(=O)N2CCN(c3ccccc3F)CC2)cs1 |  | inconclusive: -31.7% [cytotoxic]
COc1cc(SC)ccc1C(=O)Nc1ccc2c(c1)OCCO2 | inconclusive [cytotoxic, full curve, poor fit] | 
O=C(Nc1ccc(Oc2ccccc2)cc1)c1csc(COCCO)n1 | inconclusive [cytotoxic, single point] | 
COC(=O)c1cn(NC(=O)c2cc(OC)c(OC)c(OC)c2)c(=O)c2ccccc12 | inconclusive [cytotoxic, single point] | 
Cc1nn(-c2ccccc2)c2nc(=O)n(-c3ccccc3)cc12 | inconclusive [cytotoxic, single point] | 
COc1ccc(NC(C)C(=O)Nc2ccc(C#N)cc2)cc1Cl (configuration not stated) | inconclusive [cytotoxic, partial curve] | 
CCCC[C@@]1(C2CCCC2)Cc2cc(OCC(=O)O)c(Cl)c(Cl)c2C1=O | inconclusive [cytotoxic, single point] | 
COc1ccc(OC)c2sc(N(CCCN(C)C)C(=O)CCS(=O)(=O)c3ccccc3)nc12 | inconclusive [cytotoxic, single point] | 
CC(C)(CNC(=O)/C=C/c1ccc(F)cc1)CNC(=O)/C=C/c1ccc(F)cc1 | inconclusive [cytotoxic, partial curve] | 
O=C1C=C(Nc2ccc(O)cc2)C(=O)c2ccccc21 | active: 20.6 µM | 
O=C(O)/C=C/C(=O)Nc1cccc2c1-c1ccccc1C2=O | inconclusive [cytotoxic, single point] | 
O=C(O)c1ccc(NS(=O)(=O)Cc2ccc(Cl)c(Cl)c2)cc1 | inactive | 
CC(NC(=O)CSc1nnnn1C1CC1)c1ccccc1Br (configuration not stated) | inactive | 
CN(C)C(CNC(=O)c1cc(Br)c(Br)s1)c1ccco1 (configuration not stated) | inactive | 
COc1cccc(C(=O)Nc2ncc3c(n2)CC(c2ccc(OC)cc2OC)CC3=O)c1 (configuration not stated) | active: 7.94 µM | 
COc1ccc(Nc2nc(Nc3ccc(OC)cc3)nc(SC3=NCCS3)n2)cc1 | inconclusive [cytotoxic, single point] | 
CCC(Sc1nncn1C)C(=O)Nc1nnc(-c2ccccc2Cl)s1 (configuration not stated) | inactive | 
Cc1ccc(C(=O)Nc2ccccc2C(=O)N2CCCC2)cc1[N+](=O)[O-] | inconclusive [rising, single point] | 
COCc1cn(CC[C@@H]2CC[C@@H](NC(=O)Nc3ccc4c(c3)OCO4)[C@@H](CO)O2)nn1 | inactive | 
O=C(/C=C/c1cccc([N+](=O)[O-])c1)c1ccc2c(c1)OCCO2 | inconclusive [cytotoxic, single point] | 
CCCn1c(SCC(=O)Nc2cccc(C)n2)nnc1C(C)C | inconclusive [rising, partial curve, poor fit] | 

SMILES | Potency | activity, negative = toxicity
COc1ccc(-c2cc(C(=O)O)[nH]n2)cc1OC | inactive | 
NS(=O)(=O)c1ccc(NC(=O)c2cccc3cc4ccccc4nc23)cc1 | inconclusive [cytotoxic, single point] | 
CC(=O)c1c(C)[nH]c(C(=O)COC(=O)c2cc(S(=O)(=O)N(C)c3ccccc3)ccc2Cl)c1C |  | inconclusive: -16.3% [cytotoxic]
CN(c1ccc(S(=O)(=O)N2CCOCC2)cn1)C1CCCCC1 | inactive | 
COc1cccc(NC(=O)CN(C)C(=O)CC(NC(=O)c2ccccc2Cl)c2ccccc2)c1 (configuration not stated) | inactive | 
OCC1(Cc2cccc(F)c2)CCN(Cc2cccc3nccnc23)CC1 | inactive | 
CCOc1ccc(CN(C(=O)c2ccccn2)c2ccc(OC)c(Cl)c2)cc1 | inconclusive [cytotoxic, single point] | 
COCCNC(=S)N1CCC(c2nc(-c3ccc(F)cc3)no2)CC1 | inconclusive [cytotoxic, single point] | 
Cc1oc2c(F)c(F)c(F)c(F)c2c1S(=O)(=O)Nc1cccc(C(F)(F)F)c1 | active: 18.4 µM | 
COc1cccc(CNc2nc(NC(C)C)nc3ccsc23)c1 | inconclusive [cytotoxic, single point] | 
CN(Cc1nc2ccccc2c(=O)[nH]1)C(=O)c1ccc(S(=O)(=O)N2CCCC2)cc1 | inactive | 
CCN=C(NCC)SC1CC(=O)N(c2ccc(F)cc2)C1=O (configuration not stated) | inactive | 
COc1ccccc1N(CC(=O)N1CCN(c2ccc(F)cc2)CC1)S(=O)(=O)c1ccc(C)cc1 | inactive | 
COc1ccccc1NC(=O)COC(=O)c1ccccc1SCC(=O)N1CCCC1 |  | inconclusive: -25.3% [cytotoxic]
CSc1nsc(SC)c1-c1ccc(Cl)cc1 | inactive | 
Cc1cccc(Oc2nc3ccccn3c(=O)c2/C=C(\C#N)C(=O)NC2CCS(=O)(=O)C2)c1C (configuration not stated) | inactive | 
CN1CCN(c2ccc(C(=O)c3ccc(Br)cc3)cc2[N+](=O)[O-])CC1 | inconclusive [cytotoxic, single point] | 
C=C(CC)C(=O)c1ccc(OCC(=O)O)c(Cl)c1Cl | active: 23.1 µM | 
COc1ccccc1NC(=O)Nc1ccc2c(c1)nc(C)n2C | inconclusive [cytotoxic, single point] | 
CCCCNS(=O)(=O)c1ccc2nc(SCC(=O)c3ccccc3OC)[nH]c2c1 | inconclusive [cytotoxic, single point] | 
Cc1ccc2[nH]c3c(Cl)ncnc3c2c1 | inconclusive [cytotoxic, single point] | 
CCC(C)NCCOc1ccc(C(C)(C)c2ccccc2)cc1 (configuration not stated) | inconclusive [cytotoxic, single point] | 
O=C1/C(=C/c2ccccn2)SC(=S)N1c1cccc(O)c1 | inconclusive [cytotoxic, partial curve] | 
Cc1onc(C(=O)NCCc2ccccc2)c1[N+](=O)[O-] | inconclusive [cytotoxic, single point] | 

SMILES | Potency | activity, negative = toxicity
Cc1ccc(-c2cc[n+](Cc3ccccc3)cc2)cc1 | inconclusive [cytotoxic, partial curve] | 
CCCOc1ccccc1NC(=O)c1c(-c2ccccc2)noc1C | inactive | 
Cc1cc(C)c(C)c(OCCCCn2cnc3ccccc3c2=O)c1 | inconclusive [cytotoxic, single point] | 
COc1ccccc1C(=O)Nc1ccc2c(c1)CCCN2C(=O)c1ccccc1 | active: 14.6 µM | 
O=C1CCc2cc(S(=O)(=O)N3CCN(c4cccc(Cl)c4)CC3)ccc2N1 | inconclusive [cytotoxic, single point] | 
Cc1nonc1C(=O)N/N=C/c1ccc([N+](=O)[O-])o1 | inconclusive [cytotoxic, partial curve] | 
CCCCCCC(=O)Nc1nc(C)c(-c2csc(Nc3ccc(Cl)cc3)n2)s1 | inconclusive [cytotoxic, single point] | 
COc1cccc(C(=O)NCC(=O)OCc2ccc(F)cc2Cl)c1 | inactive | 
O=C(N/N=C/c1c[nH]c2ccccc12)C1COc2ccccc2O1 (configuration not stated) | active: 5.8 µM | 
Cc1ccc(CNC(=O)/C=C/c2ccc(S(=O)(=O)N3CCOCC3)cc2)cc1 | inactive | 
CCOC(=O)N1C(=O)C2(CCCCC2)N(c2ccccc2Cl)C1=S | inconclusive [cytotoxic, partial curve] | 
CC(=O)c1cccc(-c2ccnc3c2CC(C(=O)NCc2ccc(F)c(F)c2)O3)c1 (configuration not stated) | inconclusive [cytotoxic, partial curve, poor fit] | 
O=C(CCCSc1nc2ccccc2[nH]1)N1CCN(c2ccccc2)CC1 | inactive | 
Cc1ccc(-c2cc(-c3ccccc3C)[nH]n2)c(O)c1 | active: 18.4 µM | 
Cc1nc2ccccc2c(N)c1C(=O)/C=C/c1ccccc1 | active: 11.6 µM | 
COc1ccccc1-c1cnc(C(O)c2ccc(Cl)c(Cl)c2)[nH]1 (configuration not stated) | inconclusive [cytotoxic, single point] | 
CN(C)CCNc1c2c(nc3nnnn13)CCCC2 | inactive | 
COC(=O)[C@@]12C[C@@H](CC(=O)NCc3cccc(C(F)(F)F)c3)C(=O)N(CCc3ccc(OC)c(OC)c3)C1=CCC(C)(C)C2 | inconclusive [cytotoxic, partial curve, poor fit] | 
O=c1[nH]c(NCc2ccco2)nnc1Cc1ccccc1Cl | inconclusive [cytotoxic, partial curve] | 
CC(C)C[C@H]1CNC(=S)N1C[C@H]1CCCN1C[C@H](Cc1ccccc1)N1C[C@H](Cc2ccc(O)cc2)N(CC2CCCCC2)C1=S | active: 16.4 µM | 
NS(=O)(=O)c1ccc(NCc2cc(Cl)ccc2OCc2ccccc2F)cc1 | inconclusive [cytotoxic, single point] | 
Cc1ccc(NC(=O)C2(C)CCN2CCc2ccccc2)cc1O (configuration not stated) | inactive | 
COCCN1Cc2cccc(C(=O)Nc3ccc(C)cc3)c2C1=O | inactive | 
COc1ccc(-c2nn(-c3ccccc3)cc2CNC[C@H]2O[C@@H](n3cnc4c(N)ncnc43)[C@H](O)[C@@H]2O)cc1 | inactive | 
